SMILES strings stand for the structures. This is one part of the list.

The subject of the assay is T1, C. trachomatis L2/434/Bu expressing GFP (CTL2-GFP).
T1 construct: L2/434/Bu GFP intracellular growth in HeLa cells
More on the design: species or system HeLa; C. trachomatis total inclusion area by high-content imaging, normalised to DMSO. The conditions noted are these: total inclusion area; 28.5 h, 10 µM; inhibitor. In a few lines:
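Following bulk GFP and resorufin fluorescence reads, infected cells were fixed, Hoechst-stained and imaged on a high-content platform. Inclusion total area and number per well served as growth proxies; nuclei counts indicated host viability. MICs were derived as for the fluorescence assay.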
Take `O=C(NC(c1ccc(Cl)cc1)c1cnccn1)C1CCN(Cc2ccc(Oc3ccccc3)cc2)CC1` (centres unmarked) [CBK148023]: the “% of control remaining” value is reported as 64.9052.
To `COc1ccc(/C=N/NC(=O)Cn2nnnc2N)cc1` [CBK262122] belongs 103.198.
To `O=C(Cc1ccc(-c2ccccc2)cc1)NCc1nnc(-c2cccs2)o1` [CBK286295] belongs 115.159.
To `CC1=NN(c2cccc(S(=O)(=O)O)c2C(=O)Nc2ccccc2)C(=O)C1` [CBK017343] belongs 75.6183; to `Cc1ccc(Cl)cc1NC(=O)CC1NCCNC1=O` (centres unmarked) [CBK267246], 101.174; to `O=C(O)CN(CC(=O)Nc1ccc(Cl)cc1)Cc1ccccc1` [CBK286585], 91.2355.
Consider `Cc1ccc2oc(=O)cc(N/N=C(\Cl)C(N)=S)c2c1` [CBK022357], for which the “% of control remaining” value turned out to be 73.0797.
Regarding `Cn1c(COc2ccccc2Cl)nnc1SCC(=O)N1c2ccccc2Sc2ccccc21` [CBK266001], the “% of control remaining” value turned out to be 121.153.
For the compound `CCCn1c(CN2CCOCC2)nc2c1c(=O)n(C)c(=O)n2C` [CBK305911], the “% of control remaining” value is 26.1382.
Take `Nc1ccc2c(-c3ccc(OC(F)(F)F)cc3)ccnc2n1` [CBK067649]: the “% of control remaining” value stood at 78.3787.
To `O=C(NC(=S)N1CCN(CCN2C(=O)c3cccc4cccc(c34)C2=O)CC1)c1ccc2c(c1)OCO2` [CBK263577] belongs 91.2612; to `O=C(CC(NC1CCCC1)C(=O)O)Nc1cccc(Cl)c1` (centres unmarked) [CBK266831], 107.269.
To `CCOc1ccc(-c2nc(C#N)c(NCCN3CCOCC3)o2)cc1` [CBK265867] belongs 108.517.
To `CC(NC(=O)C1CC(=O)OC1(C)C)c1ccc2c(c1)CCCO2` (centres unmarked) [CBK281613] belongs 102.373.
On to `CS(=O)(=O)N1CCc2cc(-c3cn4ccccc4n3)ccc21` [CBK285190], for which the “% of control remaining” value is listed as 105.948.
To `Cn1cnc([N+](=O)[O-])c1Oc1ccccc1OCc1ccccc1` [CBK002747] belongs 103.065.
To `O=C(O)c1cc(-c2ccc(/C=C3\NC(=O)N(Cc4ccccc4)C3=O)o2)ccc1Cl` [CBK078117] belongs 94.8678; to `Cn1c(C(O)c2ccccc2)n[nH]c1=S` (centres unmarked) [CBK012984], 98.1368; to `Cc1nn(CCS(C)(=O)=O)c(C)c1CN1CCOC(c2ccccc2)C1` (centres unmarked) [CBK306162], 45.3068.
To `O=C(O)/C=C/C(=O)NCCc1c[nH]c2ccccc12` [CBK287222] belongs 104.151.
As for `OCC1CCCN1c1nccnc1-c1ccccc1F` (centres unmarked) [CBK038037], the “% of control remaining” value was determined as 88.1643.
Regarding `Cc1ccc2cc(CN(CCNC(=O)OC(C)(C)C)C(=O)NCc3ccccc3)c(=O)[nH]c2c1C` [CBK132097], the “% of control remaining” value turned out to be 86.6192.
Take `COC(=O)c1ccc2c(=O)n(CC(C)C)c(SC)nc2c1` [CBK306042]: the “% of control remaining” value worked out at 54.8942.
To `O=C(CS(=O)(=O)c1ccccc1)Nc1cccc2nsnc12` [CBK267949] belongs 103.992; to `CCC1CCCCN1C(=O)c1cccc(C)c1C` (centres unmarked) [CBK081501], 68.7523; to `CCn1nc(C)c(-c2cncn2CCN(C)C2CCCC2)c1C` [CBK281569], 96.8359.
To `Oc1cc(C(F)(F)F)nc(N2CCCC2)n1` [CBK002389] belongs 71.7041; to `C=CCn1c(Cc2csc(NC(=O)c3ccc(OC)c(OC)c3)n2)n[nH]c1=S` [CBK295324], 119.359; to `COc1ccccc1CC(=O)Nc1ccc(OCC(=O)O)cc1` [CBK264194], 111.987.
To `O=C(NCc1ccco1)[C@@H]1C=CCN1C(=O)NCc1ccccc1` [CBK284293] belongs 95.5291; to `Cc1nccc(-c2cccc(NC3CCN(c4ccc5c(c4)OCCO5)CC3)c2)n1` [CBK286439], 102.642; to `CCOC(=O)c1sc2ncccc2c1N` [CBK115371], 98.1521.
As for `Nc1ncc(-c2cccc(CO)c2)nc1N1CCOCC1` [CBK063406], the “% of control remaining” value was 133.82.
To `Cc1cccc(N2CCN(C(=O)C3C4CCC(O4)C3C(=O)O)CC2)c1C` (centres unmarked) [CBK287044] belongs 77.7158.
As for `Cc1cccc(-c2ncc(NC(=O)c3cccc(N(C)C)c3)nc2-c2ccco2)c1` [CBK036654], the “% of control remaining” value is reported as 93.6915.
To `COc1ccc2[nH]cc(CCNC(=O)c3ccc(Cl)c(Cl)c3)c2c1` [CBK115870] belongs 24.7342; to `COc1ccc(C(NC(=O)C2CCN(CCOc3ccc4ccccc4c3)CC2)c2ccccc2C)cn1` (centres unmarked) [CBK148792], 4.834; to `Cc1csc2c(N3CCC(NCCc4ccnn4C)CC3)ncnc12` [CBK307515], 57.3363.
`CC(Oc1ccc(S(=O)(=O)N2CCN(C)CC2)cc1)C(=O)NC1CCCCC1` (centres unmarked) [CBK269943]: the “% of control remaining” value amounted to 90.9091.
With `Cc1sc2nc(C3CC3)n(C3CCNCC3)c(=O)c2c1C` [CBK284228], the “% of control remaining” value came out at 80.6184.
Consider `Cc1nn(-c2ccccc2)c(Cl)c1CN1C(=O)NC2(CCCC2)C1=O` [CBK305070], for which the “% of control remaining” value was found to be 53.285.
On to `FC(F)(F)c1ccnc(OC2CCNCC2)n1` [CBK113294], for which the “% of control remaining” value came to 100.625.
To `O=C(c1cccnc1)N1CCN(c2ncccn2)CC1` [CBK144516] belongs 83.3598.
With `Cc1c(Cl)cccc1NC(=O)CSc1nccn1C` [CBK270297], the “% of control remaining” value stood at 90.8852.
As for `Cc1c(S(=O)(=O)N2CCC(N)C2)sc2ccc(Cl)cc12` (centres unmarked) [CBK164970], the “% of control remaining” value is recorded as 56.0755.
To `Cc1ccc2c(c1)CC(=O)NC21CCN(CCc2noc3ccccc23)CC1` [CBK081072] belongs 90.5267; to `CCCc1ccc(S(=O)(=O)N2CCOC(c3cnn(CC)c3)C2)cc1` (centres unmarked) [CBK306169], 29.665.
To `O=C(c1ccc(F)cc1F)N1CCC(O)(c2ccccn2)CC1` [CBK283671] belongs 67.2484.
To `Cn1cncc1C(=O)N1CCc2ccccc21` [CBK200412] belongs 87.3928; to `Cc1c(OCc2ccccc2)ccc2c1OC1(CCN(C(=O)c3ccsc3)CC1)CC2=O` [CBK156445], 85.8366.
For `Cc1ccccc1Sc1cccc(C(F)(F)F)n1` [CBK115243], the “% of control remaining” value is given as 90.4612.
To `c1cc2[nH]ccc2c(N2CCNCC2)n1` [CBK051673C] belongs 87.0719; to `CCN(CC)C(=O)c1[nH]c2ccccc2c1NS(=O)(=O)c1ccc(C(F)(F)F)cc1[N+](=O)[O-]` [CBK050109], 85.4873.

(Values after article PMC12040169 (PLOS Biology, 2025).)
